From PubChem BioAssay AID2147 (National Center for Advancing Translational Sciences (NCATS), 2009)
“And” between values parts separate entries of the source, which are not always exact repeats. Equal values may be shown once. Hit rate of the full screen: of about 230,000 compounds, about 3,600 (1.6%) were called active. This list was built around the results that the source calls inconclusive (neither active nor inactive); the mix of calls is not that of the screen. Calls follow the shape of the dose curve; as a rule, active = well fitted inhibition curve with a large enough effect (not every such curve was filed as active); inconclusive = small, poorly fitted or top-dose-only effect, or another doubt; inactive = no such curve, though single readings can be large or run the other way. Where the call is inconclusive, the potency comes from a doubtful curve fit.

molecular target: Lysine-specific demethylase 4E (Homo sapiens) (UniProt B2RXH2); assay: qHTS Assay for Inhibitors of Human Jumonji Domain Containing 2E (JMJD2E); settings: JMJD2E catalytic domain, FDH-coupled NADH fluorescence (FDH is formaldehyde dehydrogenase); series mostly up to 57.1 µM
UniProt B2RXH2, sequence (B2RXH2 whole entry, looked up, the tested form may be a part): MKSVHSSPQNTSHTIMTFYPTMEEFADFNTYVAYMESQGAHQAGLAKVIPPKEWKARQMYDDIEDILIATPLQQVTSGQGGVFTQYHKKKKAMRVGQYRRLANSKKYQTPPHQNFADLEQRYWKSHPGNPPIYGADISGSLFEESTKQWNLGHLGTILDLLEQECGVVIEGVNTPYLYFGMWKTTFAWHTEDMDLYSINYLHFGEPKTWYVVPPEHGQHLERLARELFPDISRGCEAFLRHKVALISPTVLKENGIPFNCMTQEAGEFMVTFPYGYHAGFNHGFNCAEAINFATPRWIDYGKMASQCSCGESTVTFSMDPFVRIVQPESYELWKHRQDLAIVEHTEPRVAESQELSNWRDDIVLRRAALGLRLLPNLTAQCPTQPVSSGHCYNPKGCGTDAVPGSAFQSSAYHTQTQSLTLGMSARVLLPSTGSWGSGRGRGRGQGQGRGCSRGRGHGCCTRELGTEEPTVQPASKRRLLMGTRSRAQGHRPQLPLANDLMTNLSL
Also: nearly all actives have a fitted effect of over 50% in size.
Potency is read from the fitted curve at half-maximal effect; tags tell the direction and shape of the fitted curve.

| Structure (SMILES) | Potency |
| --- | --- |
| c1ccc(N2CCN(c3ncnc4c3oc3ccccc34)CC2)cc1 | inconclusive: 25.1 µM [inhibitor, partial curve] |
| CCCCC#Cc1nc(NC)c2ncn([C@@H]3O[C@@H](CO)[C@H](O)[C@H]3O)c2n1 | inactive |
| CCC(C)NC(=O)c1c(N)n(/N=C/c2cccnc2)c2nc3ccccc3nc12 (stereo not drawn) | inconclusive: 7.08 µM [inhibitor, full curve] |
| Cn1c(CN2CCCC(C(=O)c3ccc4c(c3)OCO4)C2)nc2ccccc21 (stereo not drawn) | inconclusive: 20 µM [inhibitor, partial curve] |
| N#Cc1cc2ccccc2nc1N | inconclusive: 14.1 µM [inhibitor, partial curve] |
| O=C(CSc1ccc(Cl)cc1)Nc1cccc(-c2nc3ncccc3o2)c1 | inconclusive: 35.5 µM [inhibitor, single point] |
| CCCc1nc2oc3c(NCc4ccccn4)ncnc3c2c2c1COC(C)(C)C2 | inconclusive: 2 µM [inhibitor, partial curve] |
| CCc1cccc2c(-c3ccccc3)c3c(nc12)OCC3 | inconclusive: 35.5 µM [inhibitor, partial curve] |
| Clc1ccc(OCc2nn3c(-c4ccccc4)nnc3s2)c(Cl)c1 | inactive |
| CCc1ccc(Nc2ncc3c(n2)CC(C)CC3=O)cc1 (stereo not drawn) | inconclusive: 25.1 µM [inhibitor, single point] |
| CCOc1ccc2nc(SCC(=O)NC(=O)C(C)C)sc2c1 | inactive |
| C=CCn1c(-c2ccc(S(=O)(=O)N3CCOCC3)cc2)csc1=Nc1ccccc1 | inactive |
| CCN(CC)c1ccc(NC2=C(Cl)C(=O)c3ccccc3C2=O)cc1 | active: 7.08 µM |
| CCOc1ccc(N2C(=O)CN(CC(=O)OC)C2=S)cc1 | inactive |
| Cc1cc(C)c(O)c(-c2n[nH]c3c2C(c2cccc(O)c2)N(Cc2ccco2)C3=O)c1 (stereo not drawn) | inactive |
| CC(C)(C)c1ccc(OCC(=O)NNC(=O)C2CCCO2)cc1 (stereo not drawn) | inconclusive: 31.6 µM [inhibitor, partial curve] |
| Cc1ccc(S(=O)(=O)N(C)C)cc1NC(=O)CSc1ncc(C(F)(F)F)cc1Cl | inactive |
| Cc1ccc2c(c1)nc(NCCO)n2C | inconclusive: 39.8 µM [inhibitor, single point] |
| CCOc1c2ccc(C(=O)NC3CCCc4ccccc43)cc2nn1CC (stereo not drawn) | inconclusive: 28.2 µM [inhibitor, partial curve] |
| Cc1cccc(OC(C)c2ccnc3nc(/N=C/N(C)C)nn23)c1 (stereo not drawn) | inconclusive: 25.1 µM [inhibitor, partial curve] |
| O=C(Cc1ccccc1)Nc1cccc(N2CCCC2)c1 | inconclusive: 28.2 µM [inhibitor, single point] |
| O=c1[nH]c2ccccc2nc1C(F)(F)C(F)F | inconclusive: 22.4 µM [inhibitor, partial curve] |
| COC(=O)c1nnc(N[C@@H](Cc2c[nH]c3ccccc23)C(=O)OC)nc1C(=O)OC | inactive |

| Structure (SMILES) | Potency |
| --- | --- |
| C=C(C)CN=C1SC(C(=O)Nc2sc3c(c2C(=O)OC)CCC3)C(N)=C1C(N)=O (stereo not drawn) | inconclusive: 28.2 µM [inhibitor, partial curve] |
| S=C(NCCN1CCOCC1)Nc1cccc2ccccc12 | inconclusive: 35.5 µM [inhibitor, single point] |
| O=C(C1=C(O)/C(=C/c2ccc(O)cc2)CCC1)C(F)(F)F | inconclusive: 28.2 µM [inhibitor, single point] |
| O=C(Cc1ccccc1)Nc1ccccc1CO | inactive |
| CCOC(=O)c1ccc(-c2ccc(CO)o2)cc1 | inconclusive: 31.6 µM [inhibitor, partial curve] |
| Cc1cc(C)c(S(=O)(=O)N2CCCOC2CNC(=O)C(=O)NCc2ccncc2)c(C)c1 (stereo not drawn) | inactive |
| COc1cccc(/C=C/C(=O)OCC(=O)Nc2cc(C(F)(F)F)ccc2Cl)c1 | inconclusive: 31.6 µM [inhibitor, partial curve] |
| CCOc1ccccc1/C=N/NC(=O)CNC(=O)COc1ccccc1 | inconclusive: 6.31 µM [inhibitor, single point] |
| Cc1cccc2nc(-c3ccco3)c(Nc3ccccc3)n12 | inconclusive: 28.2 µM [inhibitor, partial curve] |
| N#Cc1nc(-c2ccc(OCc3ccc(Cl)cc3)cc2)oc1NCCCn1ccnc1 | inconclusive: 14.1 µM [inhibitor, single point] |
| CCCCSc1ccc2nc(-c3ccc(C#N)cc3)cn2c1 | inconclusive: 4.47 µM [inhibitor, full curve] |
| C=CCn1c(=NC(=O)C2COc3ccccc3O2)sc2cccc(OC)c21 (stereo not drawn) | inconclusive: 39.8 µM [inhibitor, single point] |
| COc1ccc(N=CC=C2OC(C)(C)C(C)(C)O2)cc1OC | inconclusive: 28.2 µM [inhibitor, partial curve] |
| O=C(Nc1ccccc1-c1nnn(CC(=O)N2CCN(c3ccccc3)CC2)n1)c1cccs1 | inconclusive: 39.8 µM [inhibitor, single point] |
| N#CC12C(N)=NC3(OCCO3)C1(C#N)C1=C(CCC1)NC2c1ccccc1 (stereo not drawn) | inconclusive: 39.8 µM [inhibitor, single point] |
| O=C(Nc1ccc(F)c(Cl)c1)c1nsc(Cl)c1Cl | inconclusive: 22.4 µM [inhibitor, partial curve] |
| N#Cc1ccc2c(c1)nc1ccccn12 | inconclusive: 28.2 µM [inhibitor, partial curve] |
| COc1ccccc1C(=O)Nc1sc2c(c1C(=O)NCc1ccco1)CCCC2 | inconclusive: 3.16 µM [inhibitor, partial curve] |
| Nc1c2c(nc3ccn(Cc4ccccc4)c(=O)c13)CCC2 | inconclusive: 22.4 µM [inhibitor, partial curve] |
| COc1ccc2[nH]c(-c3ccccc3)cc2c1 | inconclusive: 31.6 µM [inhibitor, partial curve] |
| CN(C)c1ccc(C(=O)Nc2ccc(O)c3c(=O)cc(-c4ccccc4Cl)oc23)cc1 | inconclusive: 28.2 µM [inhibitor, single point] |
| Cc1ccc(Nc2c(-c3ccc(N4CCOCC4)cc3)nc3ncccn23)c(C)c1 | inactive |
| COCCNC(=O)CCSc1nc(-c2ccc(OC)cc2)cc(C(F)(F)F)n1 | inconclusive: 31.6 µM [inhibitor, partial curve] |

| Structure (SMILES) | Potency |
| --- | --- |
| COc1ccc(-n2sc3c(c2=S)-c2cc(OC)ccc2NC3(C)C)cc1 | inactive |
| O=C(O)C1=C[C@H](c2csc3ccccc23)C[C@H](OCCCCO)O1 | inconclusive: 31.6 µM [inhibitor, single point] |
| CCCN1C(=O)c2cc(C(=O)O)ccc2C1O (stereo not drawn) | inconclusive: 22.4 µM [inhibitor, single point] |
| COC(=O)[C@H](COC(C)(C)C)NC(=O)O[C@H]1C(=O)c2cc(OC)ccc2O[C@@H]1c1ccc(OC)c(Br)c1 | inconclusive: 39.8 µM [inhibitor, single point] |
| Cc1cc(SCC(=O)OC/C(O)=C(\C#N)c2nc3ccccc3[nH]2)c(C)cc1Br | inconclusive: 39.8 µM [inhibitor, single point] |
| CN(C)c1ccc(-c2nnc(-c3cccs3)o2)cc1 | inconclusive: 28.2 µM [inhibitor, partial curve] |
| CCc1ccc2[nH]c(=O)c(C(c3nnnn3CC3CCCO3)N3CCCc4ccccc43)cc2c1 (stereo not drawn) | inconclusive: 22.4 µM [inhibitor, partial curve] |
| Cc1ccccc1C(OCCN(C)C)c1ccccc1 (stereo not drawn) | inconclusive: 25.1 µM [inhibitor, partial curve] |
| Cc1cc(C)cc(NCC(=O)Nc2c(C)cccc2C)c1 | inactive |
| CCOC(=O)Cn1c(=NC(=O)c2cc(-c3cccs3)nc3ccccc23)sc2cc(S(N)(=O)=O)ccc21 | inconclusive: 22.4 µM [inhibitor, partial curve] |
| COc1ccccc1N1CCN(C[C@@H](O)COc2cccc3ccccc23)CC1 | inactive and inconclusive: 28.2 µM [inhibitor, partial curve] |
| O=C(COc1ccc2ccc(=O)oc2c1)N1CCc2ccccc21 | inconclusive: 35.5 µM [inhibitor, single point] |
| O=C1c2ccc(Oc3ccc4c(c3)C(=O)N(CCCO)C4=O)cc2C(=O)N1CCCO | inconclusive: 5.01 µM [inhibitor, full curve] |
| Cc1cccc(NC(=O)C(CC(C)C)NC(=O)C2CCC(C)CC2)n1 (stereo not drawn) | inconclusive: 39.8 µM [inhibitor, single point] |
| CCC12CCCN3CCc4c(n(c5ccccc45)C(O)(C(=O)OC)C1)C32 (stereo not drawn) | inconclusive: 10 µM [inhibitor, partial curve] |
| CCOC(=O)N1CCN(Cc2cc(=O)oc3ccc4ccccc4c23)CC1 | inconclusive: 35.5 µM [inhibitor, single point] |
| O=C(Nc1nnc(/C=C/c2ccccc2)s1)c1ccco1 | inconclusive: 11.2 µM [inhibitor, partial curve] |
| O=c1[nH]c(=O)c2cc([N+](=O)[O-])cc([N+](=O)[O-])c2[nH]1 | inactive |
| CN1CCN(C(=S)Nc2ccccc2Cl)CC1 | inactive |
| Cc1nn(-c2ccccc2)c2nc(-c3ccccc3)cc(C(=O)N3CCOCC3)c12 | inconclusive: 35.5 µM [inhibitor, partial curve] |
| COc1ccc(/C=N/Nc2cc(=O)n(C)c(=O)n2C)cc1OC | inactive |
| Cc1[nH]c2ccc(C(=O)NCC(C)(C)N3CCOCC3)cc2c1C | inconclusive: 25.1 µM [inhibitor, partial curve] |
